Laboratory results: PMC4336329 (PLoS ONE, 2015)
In all, about 310,000 compounds went through this assay and about 14,000 (4.5%) showed an effect of 50% or more. The effect is printed as a negative number. The list shows a part of the results.

What follows are compounds tested against human ether-à-go-go-related gene (hERG) potassium channel (human, UniProt Q12809) (assay: primary screen, population patch clamp on CHO cells stably expressing hERG).
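Also: peak tail current of the secondary pulse compared with the same well before compound.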

Chain of human ether-à-go-go-related gene (hERG) potassium channel (Q12809 whole entry, looked up): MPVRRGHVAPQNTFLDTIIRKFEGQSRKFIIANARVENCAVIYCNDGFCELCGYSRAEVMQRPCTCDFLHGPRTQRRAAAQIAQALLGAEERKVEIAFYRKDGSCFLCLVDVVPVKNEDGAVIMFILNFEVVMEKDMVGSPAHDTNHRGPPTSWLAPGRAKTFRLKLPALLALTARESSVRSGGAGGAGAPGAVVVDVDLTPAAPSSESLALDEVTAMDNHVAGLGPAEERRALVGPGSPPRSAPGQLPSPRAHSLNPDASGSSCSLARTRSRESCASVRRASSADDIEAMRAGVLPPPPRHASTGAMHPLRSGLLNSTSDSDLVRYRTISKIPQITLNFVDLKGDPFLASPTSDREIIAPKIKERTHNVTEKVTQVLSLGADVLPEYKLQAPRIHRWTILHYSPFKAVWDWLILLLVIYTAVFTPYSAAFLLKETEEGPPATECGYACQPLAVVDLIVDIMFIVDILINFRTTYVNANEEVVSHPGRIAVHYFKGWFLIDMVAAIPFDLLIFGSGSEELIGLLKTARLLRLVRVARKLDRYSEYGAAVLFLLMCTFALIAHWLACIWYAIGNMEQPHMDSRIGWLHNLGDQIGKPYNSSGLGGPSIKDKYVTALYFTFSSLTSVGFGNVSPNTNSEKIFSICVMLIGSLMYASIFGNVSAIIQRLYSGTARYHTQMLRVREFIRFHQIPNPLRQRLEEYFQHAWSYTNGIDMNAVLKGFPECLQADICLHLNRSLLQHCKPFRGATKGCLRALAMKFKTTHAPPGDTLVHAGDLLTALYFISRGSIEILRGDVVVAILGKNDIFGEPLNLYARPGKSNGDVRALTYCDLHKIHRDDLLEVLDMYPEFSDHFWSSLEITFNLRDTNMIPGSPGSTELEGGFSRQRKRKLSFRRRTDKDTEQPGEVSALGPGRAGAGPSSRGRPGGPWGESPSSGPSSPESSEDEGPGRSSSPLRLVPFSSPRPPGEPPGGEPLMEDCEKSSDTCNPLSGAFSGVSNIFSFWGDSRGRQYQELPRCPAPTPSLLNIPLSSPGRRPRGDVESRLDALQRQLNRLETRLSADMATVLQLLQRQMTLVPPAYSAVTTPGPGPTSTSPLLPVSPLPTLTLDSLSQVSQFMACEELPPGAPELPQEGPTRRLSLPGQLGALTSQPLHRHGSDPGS

SMILES	hERG current change (%, negative = inhibition) at 10uM [%]
COc1cc(C(CCN2CCCC2)c2c(OC)cc(OC)c3ccc(=O)oc23)cc(OC)c1OC (centres unmarked)	-69.2
Cc1cc(N)n(-c2nc(-c3cccnc3)nc3ccccc23)n1	-27.4
COc1ccc2cc(S(=O)(=O)NC3CC(C)(C)NC(C)(C)C3)ccc2c1	-3.04
CS(=O)(=O)N(CC(=O)Nc1cccnc1)c1ccc2c(c1)OCCO2	14.9
O=C(Cc1ccc(Br)cc1)Nc1ccc2[nH]ncc2c1	24.8
Nc1c(NCc2ccccc2F)c(=O)[nH]c(=O)n1Cc1ccccc1	-2.29
COc1ccc(OCCCC(=O)Nc2ccc3c(c2)OCO3)cc1	-3.37
CC(C)Cn1c(N)c(C(=O)COC(=O)c2cc(C3CC3)nc3ccccc23)c(=O)n(C)c1=O	-8.65
COc1ccc(/C(C)=N/NC(=O)Cc2ccc(Cl)cc2)cc1	14.6
CC(C)(CNc1ccc(S(=O)(=O)C(F)(F)F)cc1[N+](=O)[O-])N1CCOCC1	-7.34
O=S(=O)(Nc1cccc(Br)c1)c1cccc2nsnc12	-3.25
CCN(Cc1ccccc1)C(=O)c1nn(-c2ccc(OC)cc2)c(=O)c2c1c1ccccc1n2C	-5.28
CCn1c2ccccc2c2cc(NC(=O)CSc3nnc(-c4cccc(Cl)c4)o3)ccc21	1.03
CC(C)(CNC(=O)c1sc2cc(F)ccc2c1Cl)N1CCOCC1	-33.2
N/C(=N\OC(=O)CCCCCN1C(=O)c2ccccc2C1=O)c1ccccn1	4.97
CCCCn1c(O)c(/C=C/C=C/C=Nc2ccccc2)sc1=S	31
COC(=O)Cc1nnc(NC(=O)c2ccccc2)s1	6.83
CC1(C)CC(N2CCOCC2)=CC(=[N+]2CCOCC2)C1.[I-]	8.01
CC(C)(C)[C@H]1CCC(=O)N([C@H](CC#N)Cc2ccccc2)CC1	-13.5

SMILES	hERG current change (%, negative = inhibition) at 10uM [%]
Cc1ccc(C(=O)NC2CC(C)(C)NC(C)(C)C2)cc1	0.0221
Cc1ccccc1N1C(=O)CC(N(O)c2ccccc2)C1=O (centres unmarked)	7.35
NS(=O)(=O)c1ccc(NS(=O)(=O)c2ccc(Br)cc2)cc1	15.4
Cc1ccc(S(=O)(=O)N2CCN(C(=O)COC(=O)c3oc4ccccc4c3C)CC2)cc1	13.2
O=C(Nc1cccc([N+](=O)[O-])c1)C1C2/C=C\CCCCC21 (centres unmarked)	20
Cc1cc(C)c(S(=O)(=O)NCc2cccs2)cc1C	-12.6
COC(=O)C(C)Oc1ccc(-c2nccc(-c3cccs3)n2)cc1 (centres unmarked)	2.25
COc1ccccc1NC(=O)CSc1nnnn1-c1ccc(F)cc1	-12.3
CC1CCCCC1NC(=O)CCn1c(=O)oc2ccccc21 (centres unmarked)	5.54
O=S1(=O)CCN2C=C(Br)C=C(Br)C2=N1	1.1
Cc1nc2sccn2c(=O)c1S(=O)(=O)N1CCN(c2ccccc2)CC1	-11.2
OCCC1CN(Cc2cccn2-c2ncccn2)CCN1C1CCCC1 (centres unmarked)	-6.11
CCC(C)[C@H](NC(=O)N1CCN(C)CC1)C(=O)OC (some centres unmarked)	11.1
COc1ccc(CCNC(=O)CSc2nc3[nH]ncc3c(=O)n2-c2ccccc2Br)cc1OC	39.6
Cc1cc(C(=O)Nc2nc3c(C)cccc3s2)c(C)o1	5.07
Cc1cc(C)c2c(N)c(C(=O)N/N=C/c3cccnc3)sc2n1	6.25
CC(C)n1c(O)c(N=NC(=O)C2COc3ccccc3O2)c2ccccc21 (centres unmarked)	12.4
O=C(CCn1c(=S)[nH]c2ccccc2c1=O)NCC1CCCO1 (centres unmarked)	-15
Nc1c(C(=O)c2ccccc2)sc2c1c(=O)[nH]c(=O)n2-c1ccccc1	-28.9

SMILES	hERG current change (%, negative = inhibition) at 10uM [%]
CCN(CC)CCNC(=O)c1cn(CC)c2ccc(S(=O)(=O)N(C)C)cc2c1=O	11.1
COc1ccc(/C=C(/NC(=O)c2ccccc2)C(=O)NCCCn2ccnc2)cc1OC	19
COC(CNC(=O)c1ccc(Cn2c(=S)[nH]c3cc4c(cc3c2=O)OCO4)cc1)OC	6.72
O=C1/C(=C/c2cccnc2)SC(=S)N1Nc1ccccc1	6.02
OCCCNc1nc(-c2ccc(Cl)cc2)nnc1-c1ccccc1	-40
O=C1C(N2CCOCC2)=C(n2nnc3ccccc32)C(=O)c2ccccc21	-11.9
Cc1ccc(-n2ncc(C#N)c2/N=C/N(C)C)cc1	11.8
O=[N+]([O-])c1nn(-c2ccccc2)n(O)c1=NCCc1ccccc1	-13.6
CN(CC1CCCO1)S(=O)(=O)c1ccc(C(=O)Nc2ccc(F)cc2)cc1 (centres unmarked)	13
O=C1NC2(CCCCCC2)C(=O)N1Cc1cccc(Cl)c1	-21.8
COc1ccc(-c2nn(-c3ccccc3)cc2/C=N/Nc2ccc(Cl)c(C(=O)O)c2)cc1OC	9.19
CCOC(=O)N1CCN(/C=C(\C#N)c2nc3ccccc3s2)CC1	-58.5
COC(=O)CCC(=O)OC1(C)C(=O)C2=CN(CC3CC3)C(c3ccc(OC)cc3)=CC2=C(Br)C1=O (centres unmarked)	4.74
COc1ccccc1CNC(=O)Cc1c[nH]c2ccccc12	15.3
CN(C)/C=N/S(=O)(=O)c1ccc(Cl)c(Cl)c1	-33.8
CCCOC(=O)c1ccc(NC(=O)c2ccoc2C)cc1	-1.85
O=C(COC(=O)Cc1ccccc1)Nc1ccc(Cl)cn1	17.6
Oc1ccc(C[C@@H]2CNCCN2CCC23CC4CC(CC(C4)C2)C3)cc1	-32.6
